Laboratory results taken from article PMC4336329 (PLoS ONE, 2015).
Among all 310,000 compounds or so, about 2,200 (0.71%) showed an effect of 50% or more. The effect is printed as a negative number. This is one part of the list.

target: human ether-à-go-go-related gene (hERG) potassium channel (human, UniProt Q12809); assay: primary screen, population patch clamp on CHO cells stably expressing hERG
Sequence (Q12809 whole entry, looked up): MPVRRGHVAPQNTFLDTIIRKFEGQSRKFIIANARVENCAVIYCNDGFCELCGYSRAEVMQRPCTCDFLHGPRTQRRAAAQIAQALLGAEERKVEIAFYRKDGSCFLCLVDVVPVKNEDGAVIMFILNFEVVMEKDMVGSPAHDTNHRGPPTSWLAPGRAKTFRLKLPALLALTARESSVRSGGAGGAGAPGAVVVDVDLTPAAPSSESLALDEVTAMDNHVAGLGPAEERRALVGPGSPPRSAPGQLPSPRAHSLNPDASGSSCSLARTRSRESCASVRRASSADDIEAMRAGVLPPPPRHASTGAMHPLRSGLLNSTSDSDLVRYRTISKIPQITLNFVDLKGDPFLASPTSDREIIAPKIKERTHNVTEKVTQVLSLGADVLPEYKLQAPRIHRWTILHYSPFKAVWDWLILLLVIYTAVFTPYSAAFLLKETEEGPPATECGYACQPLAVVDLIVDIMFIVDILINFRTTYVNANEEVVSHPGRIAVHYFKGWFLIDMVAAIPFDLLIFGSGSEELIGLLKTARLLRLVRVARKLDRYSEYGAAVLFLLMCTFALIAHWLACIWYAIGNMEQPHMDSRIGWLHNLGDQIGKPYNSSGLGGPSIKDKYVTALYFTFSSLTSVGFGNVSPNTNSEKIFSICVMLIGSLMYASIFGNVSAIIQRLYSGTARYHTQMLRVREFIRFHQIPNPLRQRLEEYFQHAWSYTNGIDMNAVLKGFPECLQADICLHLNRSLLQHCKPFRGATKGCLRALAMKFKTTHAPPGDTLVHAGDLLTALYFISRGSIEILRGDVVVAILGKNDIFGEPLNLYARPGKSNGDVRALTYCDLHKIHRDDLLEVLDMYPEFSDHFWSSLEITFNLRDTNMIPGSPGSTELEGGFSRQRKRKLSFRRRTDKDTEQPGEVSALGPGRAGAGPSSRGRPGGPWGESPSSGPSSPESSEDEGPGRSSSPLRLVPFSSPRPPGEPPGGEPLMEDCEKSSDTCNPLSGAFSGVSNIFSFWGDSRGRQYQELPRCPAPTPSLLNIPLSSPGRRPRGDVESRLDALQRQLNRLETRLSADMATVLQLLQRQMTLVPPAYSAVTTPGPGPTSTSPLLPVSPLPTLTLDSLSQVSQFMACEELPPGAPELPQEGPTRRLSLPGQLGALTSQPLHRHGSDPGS

Row | SMILES | hERG current change (%, negative = inhibition) at 1uM
1 | Nc1c(C(=O)Nc2ccccc2)sc2nc3c(c(-c4ccco4)c12)CCCC3 | 22.1%
2 | CC(OC(=O)CCCC(=O)Nc1ccc(F)cc1)C(=O)c1ccccc1 (stereo not shown) | 12.7%
3 | O=C(c1ccc(CN2CCc3ccccc3C2)cc1)N1CCN(c2ccc(F)cc2)CC1 | -20.1%
4 | COc1ccc(CC(=O)NNC(=O)c2ccccn2)cc1 | 5.87%
5 | N#Cc1ccc(C(=O)Nc2nc(SCc3ccc(Cl)cc3)n[nH]2)cc1 | -9.07%
6 | COc1ccc(C(CNC(=O)C2CC2)N(C)C)cc1 (stereo not shown) | 8.34%
7 | CN(C)c1ccc(/C=N\Nc2nc(-c3ccccc3)cc(=O)[nH]2)cc1 | 9.73%
8 | COc1ccc(OC)c(-c2cc(C(=O)N3CCCc4ccccc43)no2)c1 | 3.57%
9 | COc1cc2[nH]c(=O)n(CCC(=O)N3CCN(c4cccc(C)c4C)CC3)c(=O)c2cc1OC | -1.05%
10 | O=C(CSc1cccc[n+]1[O-])NCCCc1ccccc1 | 2.59%
11 | CCN(CC)CCCN1C(=O)C(O)=C(C(=O)c2ccco2)C1c1ccc(C)o1 (stereo not shown) | 1.25%
12 | CO/C(N)=C(\C#N)N=Cc1ccccc1Cl | 8.52%
13 | Cc1ccc(-c2csc(NC(=O)c3ccc(-c4ccccc4)cc3)n2)o1 | 11.2%
14 | Cc1ccccc1NS(=O)(=O)c1nnc(NC(=O)C(C)C)s1 | 15.7%
15 | FC(F)(F)c1ccc(CSc2ccccn2)cc1 | 11.3%
16 | CN(C)S(=O)(=O)N1CCN(c2cccc(Cl)c2)CC1 | 7.21%
17 | Cc1cc(C)n2c(SCc3ccc(Cl)cc3Cl)nnc2n1 | 4.94%
18 | Cc1ccc(C(=O)/C=C/c2ccc3c(c2)OCCO3)c(O)c1 | 13.2%
19 | CCCc1c(C(=O)N/N=C(\C)CCc2ccccc2)nnn1-c1nonc1N | 13.3%
20 | Cc1ccc(S(=O)(=O)N2CCN(C)CC2)c2nsnc12 | 10.9%

Row | SMILES | hERG current change (%, negative = inhibition) at 1uM
21 | O=C(Nc1cccc(F)c1)c1c(O)c2cccc3c2n(c1=O)CCC3 | 9.46%
22 | CCOC(=O)C1=C(C)NC(=O)NC1c1ccc(OCC(=O)Nc2ccccc2)c(OC)c1 (stereo not shown) | -10.3%
23 | COc1ccc(-c2cc(-c3cccs3)nc(OC)c2C#N)cc1OC | 24.6%
24 | O=C(Nc1ccncc1)c1c(F)c(F)c(F)c(F)c1F | 17.9%
25 | CCn1ccnc1CNC(=O)CC1C(=O)NCCN1Cc1ccccc1F (stereo not shown) | 12.9%
26 | Br.CC1CCCC(C)N1Cc1cn2ccccc2n1 (stereo not shown) | 14.1%
27 | O=[N+]([O-])/C=C/c1ccc2c(ccn2Cc2ccccc2)c1 | 11.1%
28 | CCCCC(O)(CCCC)C(=O)NN(C(=O)OC)c1ccccc1 | 8.99%
29 | COc1ccc(S(=O)(=O)N(CC(=O)NCc2ccco2)c2ccccc2)cc1 | -3.88%
30 | COc1ccc(-c2cc(C(=O)NC(C)C)no2)cc1 | 5.8%
31 | CCN(CC(=O)Nc1cc(Cl)ccc1C)C(=O)CSCc1ccc(C)cc1 | 5.64%
32 | Cc1nnc(SCc2cccc(CSc3nnc(C)s3)c2)s1 | 5.44%
33 | Cn1c(=O)c2c(ncn2CC(=O)N2CCc3ccccc3C2)n(C)c1=O | 6.97%
34 | O=C(C(=O)N1CCOCC1)c1cn(Cc2ccccc2)c2ccccc12 | 3.33%
35 | S=C(NCCNCc1ccccc1)NC1CCCCC1 | 3.54%
36 | CCOc1cc(CN2CCN(CCOCCO)CC2)ccc1OC | 13.2%
37 | O=C(COc1ccccc1)N1CCN(C2CCCC2)CC1.O=C(O)C(=O)O | 8.65%
38 | CCc1nnc(NS(=O)(=O)c2ccc(NC(=S)NC(=O)c3ccc(OC)c(OC)c3)cc2)s1 | 9.77%
39 | COc1ccc(OCCSc2nnc3c(Cl)cc(Cl)cn23)cc1 | 2.32%
40 | O=C(NCc1ccco1)C(=O)NCC1OCCCN1S(=O)(=O)c1ccc(Cl)cc1 (stereo not shown) | 14.3%

Row | SMILES | hERG current change (%, negative = inhibition) at 1uM
41 | O=C(OC1CCN(c2ccc([N+](=O)[O-])cc2)CC1)c1ccccc1 | -8.91%
42 | COc1ccc(Cn2c(=O)sc3ccccc32)cc1 | -5.32%
43 | Cc1cc(C)n(-c2cc(C)c(C)cc2Br)n1 | 9.84%
44 | CCNC(=O)c1c(NC(=O)c2cc(-c3cc(C)ccc3O)n[nH]2)sc2c1CCCC2 | 19.2%
45 | Cc1cccc(C(=O)NCC(C)NC(=O)c2cccc(C)c2)c1 (stereo not shown) | 9.7%
46 | O=C(N/N=C/c1ccoc1)c1ccccc1Br | 13%
47 | Cc1ccc(NC(=O)C2CCCN2C(=O)OCc2ccccc2)cc1C (stereo not shown) | 8.04%
48 | Cn1cccc1Cc1nnc(SCC(=O)NC2CCCC2)n1CCc1ccccc1 | -0.0821%
49 | COc1nc(-c2ccccc2)ncc1S(=O)(=O)c1ccccc1 | 9.45%
50 | O=C(CSc1nnnn1C1CCCCC1)Nc1nc2c(s1)CCCC2 | -3.06%
51 | c1ccn2cc(-c3ccc4c(c3)OCO4)cc2c1 | 13.3%
52 | O=C(COc1ccccc1[N+](=O)[O-])OC1CCS(=O)(=O)C1 (stereo not shown) | 10.2%
53 | CNS(=O)(=O)c1ccc(NC(=O)c2cc(-c3ccncc3)nc3ccc(Cl)cc23)cc1 | 17.4%
54 | Cc1nc(C)c(C(=O)C2=C(O)C(=O)N(CCN(C)C)C2c2ccccc2)s1 (stereo not shown) | 15.8%
55 | CCOC(=O)C1CCN(C(=O)C(=O)Nc2ccc3nc4n(c(=O)c3c2)CCCCC4)CC1 | 8.83%
56 | CC(Oc1ccc(C#N)cc1)C(=O)NC1CCCC1 (stereo not shown) | 3.95%
57 | CCOC(=O)COc1ccc(Br)cc1/C=C/c1[nH]c(=O)[nH]c(=O)c1[N+](=O)[O-] | 13.3%
58 | CC(C)(C)NC(=O)NC(=O)Cn1cc(C(F)(F)F)ccc1=O | -1.39%
